Reference: PubChem BioAssay AID488969 (Vanderbilt High Throughput Screening Facility, 2010)
Whole data set: some 110,000 compounds, median “z-score” near -0.1, cut for the highest 2% near 2. This is one part of the list. Activity calls are given as the source filed them.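 How the source made its calls: active means z-score in the third read window above 3 or below -3; inactive means the rest.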

The molecules below were run against Metabotropic glutamate receptor 8 (Rattus norvegicus) (UniProt P70579) (assay: rat mGluR8 modulators via GIRK flux, primary screen, cell-based, thallium flux, HTS (AID 488969)). Details: HEK293 rat mGluR8, GIRK (G protein-gated inwardly rectifying potassium channel) thallium flux, FluoZin2; at 10 µM; stronger effect = higher value; submaximal glutamate (EC20) added with thallium.
Sequence of UniProt P70579 (P70579 whole entry, looked up): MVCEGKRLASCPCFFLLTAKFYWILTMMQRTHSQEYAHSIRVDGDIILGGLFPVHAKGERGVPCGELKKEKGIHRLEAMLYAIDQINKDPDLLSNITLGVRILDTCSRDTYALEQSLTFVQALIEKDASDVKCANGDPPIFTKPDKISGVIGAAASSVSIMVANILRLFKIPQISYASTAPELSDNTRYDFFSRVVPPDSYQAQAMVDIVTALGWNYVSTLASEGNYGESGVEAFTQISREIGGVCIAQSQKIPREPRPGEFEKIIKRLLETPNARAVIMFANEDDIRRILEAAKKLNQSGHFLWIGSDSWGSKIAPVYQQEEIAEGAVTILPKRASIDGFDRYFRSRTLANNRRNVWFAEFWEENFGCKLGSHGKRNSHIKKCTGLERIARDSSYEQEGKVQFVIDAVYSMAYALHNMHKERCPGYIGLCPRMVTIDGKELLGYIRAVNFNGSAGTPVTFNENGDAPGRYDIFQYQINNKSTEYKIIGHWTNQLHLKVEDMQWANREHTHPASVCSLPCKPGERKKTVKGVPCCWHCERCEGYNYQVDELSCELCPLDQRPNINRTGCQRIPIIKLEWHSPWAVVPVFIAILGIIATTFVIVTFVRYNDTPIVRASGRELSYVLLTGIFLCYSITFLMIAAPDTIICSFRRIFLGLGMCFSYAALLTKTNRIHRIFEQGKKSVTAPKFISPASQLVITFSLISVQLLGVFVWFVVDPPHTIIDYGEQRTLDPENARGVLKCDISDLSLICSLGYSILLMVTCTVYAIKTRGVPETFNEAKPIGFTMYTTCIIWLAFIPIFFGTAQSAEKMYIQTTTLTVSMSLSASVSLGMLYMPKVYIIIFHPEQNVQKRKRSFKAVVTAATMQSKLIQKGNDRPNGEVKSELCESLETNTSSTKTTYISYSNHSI

| Structure (SMILES) | z-score |
| --- | --- |
| CCn1cc(/C=N/NC(=O)c2ccc3c(c2)OCO3)c(C)n1 | -0.156 |
| O=C(NS(=O)(=O)c1ccc(NC(=O)C2CCCO2)cc1)c1ccccc1 (stereo not drawn) | 0.199 |
| C(/C=C/c1ccco1)=N/N1CCN(c2ccccc2)CC1 | -1.12 |
| CCn1c(SCC(=O)Nc2sc3c(c2C#N)CCCC3)nnc1-c1ccco1 | -0.179 |
| CC(C)c1ccc(N2C(=O)CSC23C(=O)N2CCCc4cccc3c42)cc1 (stereo not drawn) | -0.833 |
| CCOC(=O)/C=C(\C)Sc1cc(=O)oc2ccccc12 | -1.34 |
| CSC(=NNC(=O)c1ccccc1O)SC | -0.162 |
| Cn1c(OCc2ccc3c(c2)OCO3)nc2c1c(=O)n(Cc1cccc(Cl)c1)c(=O)n2C | -0.424 |
| CCCCCNC(=O)c1ccc2c(=O)[nH]c3c(C(=O)NCC4CCCO4)sc(=S)n3c2c1 (stereo not drawn) | active: -3.38 |
| Cc1cccn2c(=O)c3cc(C#N)c(=NC(=O)c4ccncc4)n(CCCOC(C)C)c3nc12 | 0.000675 |
| COc1cccc2cc(C(C)N(CCCN3CCOCC3)C(=O)Nc3ccccc3)oc12 (stereo not drawn) | -1.53 |
| COc1ccc(C(=O)OCC(=O)Nc2ccc(Cl)c(C(F)(F)F)c2)c(OC)c1OC | 0.41 |
| CCOC(=O)/C(=N\Nc1cc(Cl)ccc1Cl)N1CCN(C)CC1 | -0.132 |
| CCSc1nnc(NC(=O)CSc2nnc(Cc3cccn3C)n2-c2ccc(F)cc2)s1 | 0.265 |
| CCC(=O)N1CCc2cc(S(=O)(=O)NCCC(=O)NC3CCCc4ccccc43)ccc21 (stereo not drawn) | 0.288 |
| COc1ccc(Cc2nnc(N/N=C/c3ccc(O)cc3)[nH]c2=O)cc1OC | -0.41 |
| CCN1C(=O)c2cccc3c(NC(=O)c4ccccc4)ccc1c23 | -0.427 |
| COc1cc(C=Nc2cccc([N+](=O)[O-])c2C)ccc1OC(C)=O | -0.417 |
| CCCOc1ccc(-c2c(C(=O)N/N=C/c3ccc(OCC)cc3)nnn2-c2nonc2N)cc1 | -0.25 |
| Cc1nc2sc(C(c3ccc(F)cc3)N3CCN(C(=O)c4ccco4)CC3)c(O)n2n1 (stereo not drawn) | -0.218 |
| CCOc1cccc(SCc2noc(C(=O)NC(C)C)c2C(=O)O)c1 | -0.448 |
| Cc1ccc(C)c2[nH]c(=O)c(CN(CCN3CCCC3)C(=O)Nc3ccc(F)cc3)cc12 | 0.644 |
| COc1ccc(C(=O)N/N=C/c2ccc(OC)c(OS(=O)(=O)c3ccccc3)c2)cc1 | 0.165 |

| Structure (SMILES) | z-score |
| --- | --- |
| Cc1nn(C)c(Oc2ccccc2)c1CCNS(=O)(=O)c1ccc(F)cc1 | -0.0496 |
| Cc1ccc2nc(SC(C)C(=O)NCc3ccc4c(c3)OCO4)[nH]c2c1 (stereo not drawn) | -0.22 |
| C[C@H](C(=O)O)c1n[nH]c(=O)c2ccccc12 | -0.102 |
| Cc1cc(N2CCCCC2)nc(SCc2ccc(C#N)cc2)n1 | -0.719 |
| O=C(C1CCCN(S(=O)(=O)c2ccc(Br)s2)C1)N1CCCCCC1 (stereo not drawn) | -1.4 |
| COc1cc(CCC(=O)OCC(=O)Nc2c(C)cccc2C(C)C)cc(OC)c1OC | 0.216 |
| O=C(COCc1nc2ccccc2c(=O)[nH]1)NCC1CCCCC1 | 0.366 |
| CC(=O)Nc1ccc(C(=O)N2CCCC2)cc1 | -0.0468 |
| CC(C)(C)c1cc(C(=O)N/N=C/c2ccccc2O)n(-c2ccccc2)n1 | -0.556 |
| COC(=O)[C@H](C)NC(=O)COc1ccccc1 | -0.166 |
| COc1ccccc1C(c1nnnn1Cc1ccccc1)N1CCN(C2CCCC2)CC1 (stereo not drawn) | 0.694 |
| Cc1ccc(-c2nc3sc4c(c3c(=O)n2N)CCCC4)cc1 | -0.481 |
| N#Cc1ccccc1NC(=O)C1CC(=O)N(c2ccc3c4c(cccc24)CC3)C1 (stereo not drawn) | -0.61 |
| CCc1ccccc1NC(=O)Cn1cccc1C1=NC(c2ccccc2)CO1 (stereo not drawn) | -0.345 |
| COC(=O)c1c(N)c(C#N)c(C)n1-c1ccccc1 | -0.272 |
| CC1(C)CC(=O)C(C=NC2CC(C)(C)NC(C)(C)C2)=C(O)C1 | -0.181 |
| CC(NS(=O)(=O)c1cccc(Cl)c1)C(=O)Nc1ccc(-c2nc3ccccc3s2)cc1 (stereo not drawn) | -0.0501 |
| COc1ccc(CN2C(=O)NC3(CCOc4ccccc43)C2=O)cc1F (stereo not drawn) | -0.225 |
| CC(C)OC(=O)CCC(=O)Nc1nc2ccccc2s1 | 0.26 |
| COCCn1c(SCC(=O)N(C(C)C)C(C)C)nnc1-c1cc2ccccc2cc1O | 0.816 |
| CCC(C)NC(C(=O)Nc1ccc(Cl)c([N+](=O)[O-])c1)c1ccccc1 (stereo not drawn) | -0.114 |
| CCc1ccccc1NC(=O)c1ccoc1C | -0.205 |
| O=C(NC(NC(=S)N1CCOCC1)C(Cl)(Cl)Cl)c1ccc(Cl)cc1 (stereo not drawn) | -0.205 |

| Structure (SMILES) | z-score |
| --- | --- |
| Cc1csc2ncc(C(=O)Nc3ccon3)c(=O)n12 | 0.098 |
| O=C(N/N=C/c1ccc[nH]1)c1cccnc1 | -0.0606 |
| CC(C)(C)NS(=O)(=O)c1ccc2c(c1)oc(=O)c1cc(S(=O)(=O)NC(C)(C)C)ccc12 | -0.0322 |
| CCC(CO)Nc1ncnc2c1cnn2-c1ccc(OC)cc1 (stereo not drawn) | 0.314 |
| CC(C)(C)c1csc(NC(=O)c2ccc(Cl)s2)n1 | -0.708 |
| Cc1ccccc1OCC(=O)N/N=C/c1ccc(Sc2nc3ccccc3s2)o1 | -0.0814 |
| Cc1cc(C)n(Cc2ccc(C(=O)NCc3ccco3)o2)n1 | -0.366 |
| O=C(Nc1ccccc1N1CCCC1)c1ccc2c(c1)OCO2 | -0.236 |
| Nc1nc2nc(-c3ccccc3)cc(=O)n2[nH]1 | 0.205 |
| O=C1Nc2ccccc2C12OCC(COc1ccc(Cl)cc1)O2 (stereo not drawn) | 0.176 |
| O=C(O)Cc1ccc(-c2ccccc2-c2ccccc2)cc1 | 0.095 |
| CCC/C(C)=N/NC(=O)c1ccccc1O | -0.182 |
| N#CC(C(=O)NCc1ccco1)c1nc2ccccc2nc1N1CCOCC1 (stereo not drawn) | 0.555 |
| O=C(CCN1C(=O)/C(=C\c2ccccc2Cl)SC1=S)N1CCN(c2ccccc2)CC1 | 0.479 |
| Cc1cc(C(=O)Nc2sc(C)c(-c3ccc(F)cc3)c2C(N)=O)no1 | 0.0342 |
| COc1cccc(-c2cc(C(=O)NCC3CCCO3)c3ccccc3n2)c1 (stereo not drawn) | 0.539 |
| Cn1cccc1Cc1nnc(SCC(=O)NC2CCCC2)n1CCc1ccccc1 | -0.147 |
| COc1ccc2c(c1)C1=NN(/C(C)=C/C(C)=O)C(c3ccc(F)cc3)C1CC2 (stereo not drawn) | -0.895 |
| CC(C)(C)c1cc(NC(=O)c2cccc(S(=O)(=O)N3CCOCC3)c2)no1 | -0.0985 |
| CCc1nnc(NC(=O)CSc2nnc(-c3ccccc3OC)n2-c2ccc(C)cc2)s1 | 0.391 |
| Cn1c(COc2ccccc2)nnc1SCC(=O)c1cccc([N+](=O)[O-])c1 | 0.0138 |
| CCc1cccc(C)c1NC(=O)CSc1nnc(-c2cc3cc(Br)ccc3o2)n1CC | -0.188 |
